# Experimental data reported in the supplement of paper PMC8728848.
# Some of the results follow.
# B1: Banana lectin (Musa acuminata) (protein)
# chain: MNGAIKVGAWGGNGGSAFDMGPAYRIISVKIFSGDVVDGVDVTFTYYGKTETRHYGGSGGTPHEIVLQEGEYLVGMAGEVANYHGAVVLGKLGFSTNKKAYGPFGNTGGTPFSLPIAAGKISGFFGRGGKFLDAIGVYLEPLEHHHHHH
# Columns and labels:
# Test in all cases: glycan array binding signal (z-score within array); higher = stronger binding
# Conditions in all cases: glycan notation: IUPAC condensed, linker removed
# [1] = biological target: Gal(a1-6)Glc
# Method in brief: (§1)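 The binding signal is a Z-score computed within each array. Data were drawn from 3228 arrays in the Consortium for Functional Glycomics database, restricted to those with a known protein sequence. Scores were averaged over arrays of the same protein sequence at different concentrations or buffers, and over linkers, and negative values can be taken as non-binding.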
# [2] = biological target: Gal(b1-2)Gal
# Method in brief: as §1
# [3] = biological target: Gal(b1-3)Gal
# Method in brief: as §1
# [4] = biological target: Gal(b1-3)Gal(b1-4)GlcNAc
# Method in brief: as §1
# [5] = biological target: Gal(b1-3)GalNAc
# Method in brief: as §1
# [6] = biological target: Gal(b1-3)GalNAc(a1-3)[Fuc(a1-2)]Gal(b1-4)Glc
# Method in brief: as §1
# [7] = biological target: Gal(b1-3)GalNAc(a1-3)[Fuc(a1-2)]Gal(b1-4)GlcNAc
# Method in brief: as §1
# [8] = biological target: Gal(b1-3)GalNAc(b1-3)Gal
# Method in brief: as §1
# [9] = biological target: Gal(b1-3)GalNAc(b1-3)Gal(a1-4)Gal(b1-4)Glc
# Method in brief: as §1
# [10] = biological target: Gal(b1-3)GalNAc(b1-4)Gal(b1-4)Glc
# Method in brief: as §1
# [11] = biological target: Gal(b1-3)GalNAc(b1-4)[Neu5Ac(a2-3)]Gal(b1-4)Glc
# Method in brief: as §1
# [12] = biological target: Gal(b1-3)GlcNAc
# Method in brief: as §1
# [13] = biological target: Gal(b1-3)GlcNAc(a1-3)Gal(b1-4)GlcNAc
# Method in brief: as §1
# [14] = biological target: Gal(b1-3)GlcNAc(a1-6)Gal(b1-4)GlcNAc
# Method in brief: as §1
# [15] = biological target: Gal(b1-3)GlcNAc(b1-2)Man
# Method in brief: as §1
# [16] = biological target: Gal(b1-3)GlcNAc(b1-2)Man(a1-3)[Gal(b1-3)GlcNAc(b1-2)Man(a1-6)]Man(b1-4)GlcNAc(b1-4)GlcNAc
# Method in brief: as §1
# [17] = biological target: Gal(b1-3)GlcNAc(b1-2)Man(a1-3)[Gal(b1-3)GlcNAc(b1-2)Man(a1-6)]Man(b1-4)GlcNAc(b1-4)[Fuc(a1-6)]GlcNAc
# Method in brief: as §1
# [18] = biological target: Gal(b1-3)GlcNAc(b1-2)Man(a1-3)[GlcNAc(b1-4)][Gal(b1-3)GlcNAc(b1-2)Man(a1-6)]Man(b1-4)GlcNAc(b1-4)GlcNAc
# Method in brief: as §1
# [19] = biological target: Gal(b1-3)GlcNAc(b1-2)[Gal(b1-3)GlcNAc(b1-6)]Man(a1-6)[Gal(b1-3)GlcNAc(b1-2)Man(a1-3)]Man(b1-4)GlcNAc(b1-4)GlcNAc
# Method in brief: as §1
# [20] = biological target: Gal(b1-3)GlcNAc(b1-3)Gal(b1-3)GlcNAc
# Method in brief: as §1
# [21] = biological target: Gal(b1-3)GlcNAc(b1-3)Gal(b1-4)Glc
# Method in brief: as §1
# [22] = biological target: Gal(b1-3)GlcNAc(b1-3)Gal(b1-4)GlcNAc
# Method in brief: as §1
# [23] = biological target: Gal(b1-3)GlcNAc(b1-3)Gal(b1-4)GlcNAc(b1-2)Man(a1-3)[Gal(b1-3)GlcNAc(b1-3)Gal(b1-4)GlcNAc(b1-2)Man(a1-6)]Man(b1-4)GlcNAc(b1-4)GlcNAc
# Method in brief: as §1
# [24] = biological target: Gal(b1-3)GlcNAc(b1-3)Gal(b1-4)GlcNAc(b1-2)[Gal(b1-3)GlcNAc(b1-3)Gal(b1-4)GlcNAc(b1-6)]Man(a1-6)[Gal(b1-3)GlcNAc(b1-3)Gal(b1-4)GlcNAc(b1-2)Man(a1-3)]Man(b1-4)GlcNAc(b1-4)[Fuc(a1-6)]GlcNAc
# Method in brief: as §1
# [25] = biological target: Gal(b1-3)GlcNAc(b1-3)Gal(b1-4)GlcNAc(b1-3)Gal(b1-4)GlcNAc(b1-2)[Gal(b1-3)GlcNAc(b1-3)Gal(b1-4)GlcNAc(b1-3)Gal(b1-4)GlcNAc(b1-6)]Man(a1-6)[Gal(b1-3)GlcNAc(b1-3)Gal(b1-4)GlcNAc(b1-3)Gal(b1-4)GlcNAc(b1-2)Man(a1-3)]Man(b1-4)GlcNAc(b1-4)[Fuc(a1-6)]GlcNAc
# Method in brief: as §1
# [26] = biological target: Gal(b1-3)GlcNAc(b1-3)Gal(b1-4)GlcNAc(b1-6)[Gal(b1-3)GlcNAc(b1-3)]Gal(b1-4)Glc
# Method in brief: as §1
# [27] = biological target: Gal(b1-3)GlcNAc(b1-3)Gal(b1-4)[Fuc(a1-3)]GlcNAc
# Method in brief: as §1
# [28] = biological target: Gal(b1-3)GlcNAc(b1-3)Gal(b1-4)[Fuc(a1-3)]GlcNAc(b1-6)[Gal(b1-3)GlcNAc(b1-3)]Gal(b1-4)Glc
# Method in brief: as §1
# [29] = biological target: Gal(b1-3)GlcNAc(b1-3)GalNAc
# Method in brief: as §1
# [30] = biological target: Gal(b1-3)GlcNAc(b1-6)Gal(b1-4)GlcNAc
# Method in brief: as §1
# [31] = biological target: Gal(b1-3)GlcNAc(b1-6)GalNAc
# Method in brief: as §1
# [32] = biological target: Gal(b1-3)GlcNAc(b1-6)[Gal(b1-3)]GalNAc
# Method in brief: as §1
# [33] = biological target: Gal(b1-3)GlcNAc6S
# Method in brief: as §1
# [34] = biological target: Gal(b1-3)[Fuc(a1-4)]GlcNAc
# Method in brief: as §1
# [35] = biological target: Gal(b1-3)[Fuc(a1-4)]GlcNAc(b1-2)Man
# Method in brief: as §1
# [36] = biological target: Gal(b1-3)[Fuc(a1-4)]GlcNAc(b1-2)Man(a1-3)[Gal(b1-3)[Fuc(a1-4)]GlcNAc(b1-2)Man(a1-6)]Man(b1-4)GlcNAc(b1-4)[Fuc(a1-6)]GlcNAc
# Method in brief: as §1
# [37] = biological target: Gal(b1-3)[Fuc(a1-4)]GlcNAc(b1-3)Gal(b1-3)[Fuc(a1-4)]GlcNAc
# Method in brief: as §1
# [38] = biological target: Gal(b1-3)[Fuc(a1-4)]GlcNAc(b1-3)Gal(b1-4)[Fuc(a1-3)]GlcNAc
# Method in brief: as §1
# [39] = biological target: Gal(b1-3)[Fuc(a1-4)]GlcNAc(b1-6)GalNAc
# Method in brief: as §1
# [40] = biological target: Gal(b1-3)[GlcNAc(b1-6)]GalNAc
# Method in brief: as §1
# [41] = biological target: Gal(b1-3)[Neu5Ac(a2-6)]GalNAc
# Method in brief: as §1
# [42] = biological target: Gal(b1-3)[Neu5Ac(a2-6)]GlcNAc(b1-4)Gal(b1-4)Glc
# Method in brief: as §1
# [43] = biological target: Gal(b1-3)[Neu5Ac(b2-6)]GalNAc
# Method in brief: as §1
# [44] = biological target: Gal(b1-4)Gal
# Method in brief: as §1
# [45] = biological target: Gal(b1-4)GalNAc(a1-3)[Fuc(a1-2)]Gal(b1-4)GlcNAc
# Method in brief: as §1
binder,measurement,setting,value
B1,glycan array binding signal (z-score),[1],-0.231
same,glycan array binding signal (z-score),[2],-0.207
same,glycan array binding signal (z-score),[3],-0.227
same,glycan array binding signal (z-score),[4],-0.247
same,glycan array binding signal (z-score),[5],-0.206
same,glycan array binding signal (z-score),[6],-0.18
same,glycan array binding signal (z-score),[7],-0.175
same,glycan array binding signal (z-score),[8],-0.212
same,glycan array binding signal (z-score),[9],-0.196
same,glycan array binding signal (z-score),[10],-0.278
same,glycan array binding signal (z-score),[11],-0.225
same,glycan array binding signal (z-score),[12],-0.219
same,glycan array binding signal (z-score),[13],3.29
same,glycan array binding signal (z-score),[14],-0.019
same,glycan array binding signal (z-score),[15],-0.219
same,glycan array binding signal (z-score),[16],0.694
same,glycan array binding signal (z-score),[17],0.187
same,glycan array binding signal (z-score),[18],1.07
same,glycan array binding signal (z-score),[19],0.504
same,glycan array binding signal (z-score),[20],-0.206
same,glycan array binding signal (z-score),[21],-0.206
same,glycan array binding signal (z-score),[22],-0.264
same,glycan array binding signal (z-score),[23],-0.106
same,glycan array binding signal (z-score),[24],0.634
same,glycan array binding signal (z-score),[25],0.372
same,glycan array binding signal (z-score),[26],-0.195
same,glycan array binding signal (z-score),[27],-0.216
same,glycan array binding signal (z-score),[28],-0.216
same,glycan array binding signal (z-score),[29],-0.218
same,glycan array binding signal (z-score),[30],-0.211
same,glycan array binding signal (z-score),[31],-0.193
same,glycan array binding signal (z-score),[32],0.054
same,glycan array binding signal (z-score),[33],-0.18
same,glycan array binding signal (z-score),[34],-0.199
same,glycan array binding signal (z-score),[35],-0.215
same,glycan array binding signal (z-score),[36],0.091
same,glycan array binding signal (z-score),[37],-0.176
same,glycan array binding signal (z-score),[38],-0.231
same,glycan array binding signal (z-score),[39],-0.237
same,glycan array binding signal (z-score),[40],-0.223
same,glycan array binding signal (z-score),[41],-0.213
same,glycan array binding signal (z-score),[42],-0.235
same,glycan array binding signal (z-score),[43],-0.447
same,glycan array binding signal (z-score),[44],-0.228
same,glycan array binding signal (z-score),[45],-0.242
